Experimental data taken from PubChem BioAssay AID504444 (National Center for Advancing Translational Sciences (NCATS), 2011).
Screen size: about 360,000 compounds; about 7,500 (2.1%) were called active. Roughly 20% stayed inconclusive and do not appear here. The call rests on the fitted dose curve; in most records, active means well fitted inhibition curve with a large enough effect; inconclusive means small, poorly fitted or top-dose-only effect, or effect the other way; inactive means flat fitted curve, though single readings scatter. Only a part is listed here, and it is no random draw.

Assay: Nrf2 qHTS screen for inhibitors; further: nearly all actives have a fitted effect of over 60% in size
Settings: A549 ARE-Fluc reporter, luciferase luminescence, 18-24 h; series mostly up to 46 µM; activity change, negative = inhibition: at the top concentration
In short: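 Cells were seeded and rested 2 h, then exposed to compounds for 18-24 h. CellTiter-Fluor was read first as a viability measure. BugLite was added 15 min before the final luminescent read of ARE-luciferase activity in A549 cells.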
On the % scale 0 is the no-effect control and ±100 the full control effect; potency means the concentration at half of the fitted maximal effect.

SMILES	activity change, negative = inhibition	Potency
Cc1ccc(N(C)S(=O)(=O)c2nnc(NC(=O)c3ccco3)s2)cc1	inactive: 13.3%	–
COc1ccccc1C(=O)Nc1ccc(S(=O)(=O)N2CCC(C)CC2)cc1	–	active: 23.1 µM
N#CC1=C2SCN(c3ccccc3)CN2C(=O)CC1c1ccccc1Cl (centres undefined)	inactive: 26.3%	–
C=CC[C@H](CC(=O)NCCO)C(=O)N[C@@H](COC(=O)[C@@H](CC=C)Cc1ccc(F)cc1)Cc1ccccc1	inactive: -3.83%	–
C[C@@H]1CCC[C@@]2(O[C@@H](CCO)C[C@H](O)[C@H]2O)O1	inactive: -7.38%	–
C=CC[C@H](CC(=O)N[C@H](CO)Cc1ccccc1)C(=O)N[C@H](COC(=O)[C@@H](CC=C)CC(=O)OC(C)(C)C)Cc1c[nH]c2ccccc12	inactive: -1.52%	–
N#Cc1nc(NCC(F)F)nc(Nc2cc(F)cc(F)c2)n1	inactive: 9.43%	–
O=C(c1ccc2ccccc2c1)C1CCCN(S(=O)(=O)c2cccnc2)C1 (centres undefined)	–	active: 20.6 µM
CC(=O)N1CCc2cc(S(=O)(=O)CCC(=O)N3CCN(c4ccccc4F)CC3)ccc21	inactive: 12.3%	–
CCCCCC/C=C/c1ccc(OC)c(C2C3C=CCC(C)C3C(=O)N2Cc2ccccc2)c1 (centres undefined)	inactive: 9.24%	–
CCOC(=O)C1CCN(S(=O)(=O)c2csc(C(N)=O)c2)CC1	inactive: 2.58%	–
Cc1cc(NC(=O)c2cccc(S(=O)(=O)N(C)C)c2)n(-c2ccccn2)n1	–	active: 25.9 µM
Cc1nc2cccnc2n1-c1cccc(C(=O)N2CCN(c3ccc(Cl)cc3)CC2)c1	–	active: 18.4 µM
CCN(CCCNC(=O)Cn1ncc2c([nH]c3ccc(C)cc32)c1=O)c1cccc(C)c1	inactive: 9.82%	–
COc1cccc(NC(=O)CN2C(=O)c3cccnc3Oc3ccc(Cl)cc32)c1	inactive: -10.9%	–
O=C(Nc1ccccc1)C1=C[C@@H](c2ccc(Br)cc2)C[C@@H](OCc2ccc(CO)cc2)O1	–	active: 18.4 µM
Cc1ccc(N2C(=O)/C(=C/c3ccco3)SC2=S)cc1	inactive: 3.79%	–
O=C1[C@H](Cc2ccccc2)NCCCC[C@@H](c2ccco2)N1Cc1ccccc1	inactive: 6.46%	–
COc1ccccc1Nc1c2ccccc2nc2ccccc12	–	active: 14.6 µM
Cc1cccc(N2CCN(C(=O)Cn3nc(C)n4cccc4c3=O)CC2C)c1 (centres undefined)	inactive: -1.5%	–
COc1ccc(CCNc2ccc(N3C(=O)CC(C)C3=O)cc2[N+](=O)[O-])cc1OC (centres undefined)	–	active: 14.6 µM
CCN(Cc1ccccc1)S(=O)(=O)c1ccc(C(=O)N(CCCN(C)C)c2nc3c(C)c(C)ccc3s2)cc1	–	active: 18.4 µM
O=C(/C=C/c1ccccc1[N+](=O)[O-])c1ccccc1Br	–	active: 16.4 µM
C=CCOC(=O)C1=C(C)NC(SCC)=C(C#N)C1c1ccc(Cl)cc1 (centres undefined)	–	active: 20.6 µM
